# From the supplement of paper PMC10320760
# This is a noisy data set.
# B1: Ydj1; a variant is named by its letters at X, in order (parent)
# chain: MVKETKFYDILGVPVTATDVEIKKAYRKCALKYHPDKNPSEEAAEKFKEASAAYEILSDPEKRDIYDQFGEDGLSGAGGAGGFPGGGFGFGDDIFSQFFGAGGAQRPRGPQRGKDIKHEISASLEELYKGRTAKLALNKQILCKECEGRGGKKGAVKKCTSCNGQGIKFVTRQMGPMIQRFQTECDVCHGTGDIIDPKDRCKSCNGKKVENERKILEVHVEPGMKDGQRIVFKGEADQAPDVIPGDVVFIVSERPHKSFKRDGDDLVYEAEIDLLTAIAGGEFALEHVSGDWLKVGIVPGEVIAPGMRKVIEGKGMPIPKYGGYGNLIIKFTIKFPENHFTSEENLKKLEEILPPRIVPAIPKKATVDECVLADFDPAKYNRTRASRGGANYDSDEEEQGGEGVQCXXX
# Variants of: B1
# Test: enrichment factor, frequency at 37 °C / frequency at 25 °C (thermotolerance selection) (ratio); higher = more growth at 37 °C, higher likelihood of farnesylation
# Conditions: with Saccharomyces cerevisiae ydj1Δ (yWS304); selective temperature 37 °C; reference temperature 25 °C
# Method: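 Pooled library of all 8,000 Ydj1-CXXX C-terminal motif variants (native CASQ replaced by C + three variable residues, one codon per amino acid) expressed from a CEN plasmid in S. cerevisiae ydj1Δ (yWS304). The library was grown in SC-Ura liquid to A600 ~2 (~8 generations) at permissive 25 °C or selective 37 °C. Reads from 8 and 7 replicates were pooled and variants counted by NGS. Enrichment factor = frequency at 37 °C / frequency at 25 °C, with a +1 correction; it reports Ydj1-dependent thermotolerance, used as a read-out of farnesylation by yeast FTase.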
row,Variant,enrichment factor
1,VLA,1.33
2,VLD,1.33
3,VLE,3.22
4,VLC,0.788
5,FLE,1.48
6,FLC,1.49
7,FLA,1.45
8,FLD,1.7
9,SKY,0.128
10,SKT,0.147
11,SKL,0.253
12,SKQ,0.465
13,SKI,0.152
14,SKW,0.169
15,SKN,0.131
16,SKP,0.0799
17,SKS,0.138
18,SKR,0.177
19,SKV,0.141
20,SKM,0.234
21,SKK,0.0914
22,AKY,0.178
23,AKW,0.197
24,AKV,0.173

row,Variant,enrichment factor
1,AKS,0.21
2,AKR,0.155
3,AKM,1.21
4,AKK,0.255
5,AKN,0.22
6,AKT,0.168
7,AKL,0.152
8,AKP,0.215
9,AKQ,1.33
10,MKR,0.0511
11,MKV,0.118
12,MKY,0.142
13,MKT,0.146
14,MKK,0.0626
15,MKM,0.247
16,MKI,0.157
17,MKQ,0.345
18,MKW,0.121
19,MKN,0.178
20,MKS,0.15
21,MKP,0.113
22,MKL,0.146
23,HLC,0.934
24,HLA,3.13

row,Variant,enrichment factor
1,HLE,2.9
2,HLD,2.45
3,PKM,0.3
4,PKT,0.109
5,PKN,0.0779
6,PKS,0.199
7,PKL,0.151
8,PKK,0.0982
9,PKW,0.131
10,PKV,0.258
11,PKQ,0.772
12,PKI,0.211
13,PKY,0.144
14,PKR,0.187
15,PKP,0.154
16,YLA,0.651
17,YLE,1.9
18,YLC,1.43
19,YLD,2.73
20,EKP,0.149
21,EKW,0.117
22,EKV,0.128
23,EKQ,0.48
24,EKK,0.0804

row,Variant,enrichment factor
1,EKT,0.181
2,EKN,0.257
3,EKM,0.29
4,EKR,0.161
5,EKL,0.107
6,EKS,0.116
7,EKY,0.0724
8,MLE,1.58
9,MLA,2.11
10,MLC,1.28
11,MLD,1.41
12,RLA,1.47
13,RLE,1.56
14,RLC,0.613
15,RLD,1.14
16,KKS,0.225
17,KKL,0.18
18,KKV,0.232
19,KKW,0.145
20,KKP,0.119
21,KKN,0.149
22,KKY,0.0965
23,KKI,0.11
24,KKM,0.145

row,Variant,enrichment factor
1,KKQ,0.145
2,KKR,0.165
3,KKK,0.339
4,KKT,0.0628
5,WKS,0.892
6,WKY,0.861
7,WKM,1.16
8,WKP,0.72
9,WKR,0.16
10,WKW,0.823
11,WKT,1.19
12,WKI,1.09
13,WKN,1.03
14,WKK,0.0688
15,WKV,1.26
16,WKL,0.954
17,WKQ,1.24
18,CKP,0.137
19,CKY,0.175
20,CKL,0.223
21,CKW,0.146
22,CKK,0.0568
23,CKR,0.13
24,CKT,0.183

row,Variant,enrichment factor
1,CKM,1.11
2,CKI,0.47
3,CKQ,1.72
4,CKN,0.171
5,CKS,0.479
6,CKV,0.6
7,ELA,3.47
8,ELD,1.49
9,ELE,1.38
10,ELC,2.38
11,KLD,1.4
12,KLE,1.52
13,KLA,1.77
14,KLC,0.314
15,LKV,0.152
16,LKT,0.09
17,LKS,0.452
18,LKL,0.369
19,LKW,0.101
20,LKY,0.25
21,LKR,0.149
22,LKI,0.136
23,LKQ,1.17
24,LKN,0.229

row,Variant,enrichment factor
1,LKP,0.167
2,LKM,0.747
3,LKK,0.188
4,NLE,1.87
5,NLD,1.88
6,NLC,0.521
7,NLA,1.19
8,FKR,0.174
9,FKK,0.187
10,FKP,1.13
11,FKW,0.184
12,FKY,0.159
13,FKN,1.08
14,FKL,0.521
15,FKS,0.81
16,FKV,1.42
17,FKM,1.33
18,FKQ,1.32
19,FKT,1.13
20,ILC,0.745
21,ILE,1.32
22,ILD,1.97
23,ILA,1.08
24,TKP,0.133

row,Variant,enrichment factor
1,TKV,0.159
2,TKK,0.13
3,TKL,0.198
4,TKT,0.162
5,TKM,0.636
6,TKI,0.0837
7,TKY,0.0789
8,TKR,0.133
9,TKQ,1.31
10,TKS,0.279
11,TKW,0.139
12,TKN,0.0693
13,CLC,0.746
14,CLD,1.64
15,CLE,1.45
16,CLA,0.824
17,ALE,1.88
18,ALC,0.874
19,ALA,0.579
20,ALD,1.18
21,DLA,1.53
22,DLD,1
23,DLE,0.628
24,DLC,1.35

row,Variant,enrichment factor
1,SLD,2.33
2,SLC,1.27
3,SLE,1.87
4,SLA,1.1
5,PLD,1.71
6,PLC,0.819
7,PLE,1.81
8,PLA,1.13
9,IKS,0.275
10,IKT,0.106
11,IKV,0.19
12,IKY,0.161
13,IKK,0.113
14,IKN,0.108
15,IKL,0.297
16,IKW,0.155
17,IKP,0.194
18,IKR,0.134
19,IKM,0.94
20,IKQ,1.31
21,LLD,1.56
22,LLC,1.21
23,LLA,1.51
24,LLE,1.52

row,Variant,enrichment factor
1,WLA,1.59
2,WLD,2.05
3,WLE,1.93
4,WLC,1.25
5,RKS,0.146
6,RKY,0.151
7,RKT,0.202
8,RKM,0.688
9,RKK,0.0945
10,RKI,0.113
11,RKQ,0.388
12,RKN,0.175
13,RKV,0.118
14,RKW,0.131
15,RKL,0.11
16,RKR,0.183
17,RKP,0.133
18,VKR,0.104
19,VKP,0.131
20,VKT,0.132
21,VKK,0.0945
22,VKN,0.145
23,VKI,0.168
24,VKQ,1.7

row,Variant,enrichment factor
1,VKL,0.0891
2,VKY,0.132
3,VKV,0.399
4,VKS,0.896
5,VKM,1.67
6,VKW,0.189
7,YKW,0.178
8,YKT,0.252
9,YKR,0.105
10,YKY,0.166
11,YKS,0.126
12,YKQ,0.296
13,YKL,0.175
14,YKP,0.131
15,YKV,0.18
16,YKM,0.71
17,YKI,0.303
18,YKK,0.11
19,YKN,0.266
20,NKQ,0.261
21,NKT,0.233
22,NKL,0.156
23,NKR,0.0616
24,NKY,0.162

row,Variant,enrichment factor
1,NKN,0.101
2,NKM,0.178
3,NKP,0.196
4,NKW,0.145
5,NKK,0.262
6,NKS,0.18
7,NKV,0.159
8,NKI,0.134
9,TLA,0.519
10,TLE,1.86
11,TLC,0.673
12,TLD,1.84
13,GLD,1.37
14,GLA,1.57
15,GLE,1.38
16,GLC,0.443
17,QKQ,0.316
18,QKR,0.141
19,QKP,0.125
20,QKK,0.165
21,QKW,0.147
22,QKI,0.212
23,QKT,0.132
24,QKM,0.224

row,Variant,enrichment factor
1,QKY,0.169
2,QKL,0.129
3,QKS,0.18
4,QKN,0.198
5,QKV,0.131
6,DKI,0.17
7,DKW,0.121
8,DKV,0.189
9,DKR,0.108
10,DKK,0.056
11,DKM,0.179
12,DKQ,0.0987
13,DKT,0.157
14,DKL,0.115
15,DKN,0.124
16,DKS,0.138
17,DKY,0.283
18,DKP,0.141
19,HKY,0.121
20,HKN,0.0822
21,HKL,0.158
22,HKK,0.219
23,HKT,0.203
24,HKS,0.144

row,Variant,enrichment factor
1,HKQ,0.596
2,HKV,0.153
3,HKP,0.318
4,HKW,0.173
5,HKM,0.469
6,HKR,0.11
7,QLC,1.02
8,QLD,3.58
9,QLA,2.68
10,QLE,2.12
11,GKW,0.186
12,GKY,0.193
13,GKV,0.0724
14,GKS,0.0847
15,GKL,0.124
16,GKR,0.112
17,GKT,0.151
18,GKM,0.116
19,GKP,0.257
20,GKN,0.153
21,GKQ,0.16
22,GKK,0.0819
